# Data from PubChem BioAssay AID2202238 (Ras Initiative Chemistry Research Team, Frederick National …, 2025).
# The other results are listed elsewhere or left out. Shown are side measurements of this screen, not its main read-out; they come without a call.
# Biological target: GTPase KRas (Homo sapiens) (UniProt P01116)
# Experiment: Cysteine mutants labelled by reactive fragments (mass read-out) (AID 2202238)
# Design: protein at 5 µM with 500 µM competing thiol for 1.5 h
# Details: KRAS G12D cysteine mutants, disulfide tethering, MALDI-TOF labeling, stronger effect = higher value, fragment at 500 µM
# [1] = measured here: G75C mutant labeling
# [2] = measured here: H94C mutant labeling
# [3] = measured here: I36C mutant labeling
# [4] = measured here: L120C mutant labeling
# [5] = measured here: M67C mutant labeling
# [6] = measured here: M72C mutant labeling
# [7] = measured here: N86C mutant labeling
# [8] = measured here: P121C mutant labeling
# [9] = measured here: S122C mutant labeling
# [10] = measured here: S136C mutant labeling
# [11] = measured here: G60C mutant labeling
# [12] = measured here: N26C mutant labeling
# Chain of UniProt P01116 (P01116 whole entry, looked up, the tested form may be a part): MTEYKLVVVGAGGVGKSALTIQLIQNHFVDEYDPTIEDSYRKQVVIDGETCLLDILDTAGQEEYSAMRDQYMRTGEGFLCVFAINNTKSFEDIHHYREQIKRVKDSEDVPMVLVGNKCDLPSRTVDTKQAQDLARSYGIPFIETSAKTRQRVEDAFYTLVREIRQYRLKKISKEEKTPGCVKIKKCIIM
Compound,percent labeling [1] [%],percent labeling [2] [%],percent labeling [3] [%],percent labeling [4] [%],percent labeling [5] [%],percent labeling [6] [%],percent labeling [7] [%],percent labeling [8] [%],percent labeling [9] [%],percent labeling [10] [%],percent labeling [11] [%],percent labeling [12] [%]
Cc1nc(C2CCN(C(=O)CCS)CC2)c2n1CCN(C)C2,9.5,33.1,46.7,29.4,50.3,15.9,29.3,26,25.4,51.1,,
O=C(Nc1ccccc1O)C1CCN(C(=O)CCS)CC1,12.1,39.1,38.3,40.5,75.2,32.3,43.8,38.1,34.4,56.1,,
CC(C)(C)C(NC(=O)CCS)c1nc(-c2ncn[nH]2)no1 (configuration not stated),11.2,34.4,37,35.7,34.6,27.3,33.7,33.1,36.7,47.1,,
COc1ccc(C(F)(F)C(=O)NCCS)cc1,18.2,19,16.6,25.5,20.2,42.6,15.6,17.9,19.2,20.2,42.3,29.3
O=C(NCCS)C(O)Cc1ccccc1Cl (configuration not stated),26.7,39.7,25.7,50.1,37.9,60.3,24.2,42.8,27.6,48,59.4,36.8
Cc1cc(NC(=O)CCS)nn1Cn1cc(Cl)cn1,18.8,38.3,41,35,34,39.9,34.8,26.9,25.6,54.6,,
O=C(NCCS)c1ccc(C(F)(F)F)cc1N1CCCC1,6.1,11.7,8.2,9.7,4.4,4.8,5,10.3,5.6,7.7,22.9,10.1
O=C(CCS)Nc1cccc(-c2noc(C(F)F)n2)c1,9.2,19.7,25,19.8,15.3,36.1,16.2,14.4,13.7,26.5,,
CC1CCc2ccccc2N1CCC(=O)NCCS (configuration not stated),10,20.9,17.9,21.3,33,30.6,6.5,23.2,18.2,31.9,35.8,32.4
Cc1nc2cc(C(=O)NCCS)ccc2c(=O)[nH]1,16.8,23.5,13.1,25.3,28.7,39.3,25.1,9.3,19.2,32.9,25.6,51
CN1C(=O)CCc2ccc(C(=O)NCCS)cc21,24.9,41.2,32.7,38,40.8,64.4,27.1,33.1,31.8,52.2,44.1,56.1
CN(C)CCN(Cc1cccs1)C(=O)CCS,22.8,51,51.2,34.6,55.5,53.2,46.3,40.2,40.5,66,,
